Laboratory results as given in patent publication US20250388704A1 (Xencor, published 2025).

What was measured:
[1] = target: T1, CD28 antigen used for the affinity determinations (human, UniProt P10747 19-152, limits assumed); experiment: CD28 binding affinity of the scFv (monovalent, scFv in 1+1 Fab-scFv-Fc bsAb, FIG. 20); method not stated
T1 construct: Octet/BLI is described only for the bivalent mAbs

[2] = target: T1, CD28 antigen used for the affinity …; experiment: monovalent affinity for human CD28 of the scFv in the context of the 1+1 Fab-scFv-Fc bsAb format; method not stated for this figure

B1: 1A7_H1_L1.71 CD28 binding domain as scFv (in the context of the 1+1 Fab-scFv-Fc bsAb format) (scFv)
scFv: EVQLLESGGGLVQPGGSLRLSCAASGFTFSSYAMSWVRQAPGKGLEWVSTISGSGDSTYYADSVKGRFTISRDNSKNTLYLQMNSLRAEDTAVYYCAKSGPGLRQVGFDYWGQGTLVTVSSGKPGSGKPGSGKPGSGKPGS[left out - about 100 residues]
notes: It was measured as an scFv within a 1+1 Fab-scFv-Fc bsAb whose Fab arm and Fc are not specified at that place; also called 1A7[CD28]_H1_L1.71
With B1 the Kd [1] was 180 nM.

B2: H1.1_L1.71 (scFv)
scFv: EVQLLESGGGLVQPGGSLRLSCAASGFTFSSYYMSWVRQAPGKGLEWVSTISGSGDSTYYADSVKGRFTISRDNSKNTLYLQMNSLRAEDTAVYYCAKSGPGLRQVGFDYWGQGTLVTVSSGKPGSGKPGSGKPGSGKPGS[left out - about 100 residues]
notes: The rest of the bsAb is not specified; also called 1A7[CD28]_H1.1_L1.71 as scFv, VHVL orientation
Work on B2 yielded a Kd [2] of 96 nM.
